# Source: the BET-seq Pho4 binding data (Le et al. 2018)
# This is one part of the list. Values were computed here from the reads of four pooled replicates and scatter widely.
# Target: T1, Pho4 (S. cerevisiae) (UniProt P07270)
# T1 sequence: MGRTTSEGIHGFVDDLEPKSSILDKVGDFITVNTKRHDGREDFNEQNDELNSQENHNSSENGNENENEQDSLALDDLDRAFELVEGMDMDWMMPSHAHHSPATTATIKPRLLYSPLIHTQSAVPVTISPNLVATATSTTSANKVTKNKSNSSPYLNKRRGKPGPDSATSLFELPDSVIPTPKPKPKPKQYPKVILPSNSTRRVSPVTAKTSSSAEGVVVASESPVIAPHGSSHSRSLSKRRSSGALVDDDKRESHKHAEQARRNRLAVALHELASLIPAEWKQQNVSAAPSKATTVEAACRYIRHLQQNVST
# Assay: relative binding free energy (BET-seq); higher = weaker binding
# Conditions: reference: library average
row,Sequence,relative binding free energy [kcal/mol]
1,ATGGTCACGTGGAGAT,0.08
2,CCTATCACGTGGTGGG,0.01
3,TACAGCACGTGTGGGT,0
4,TGTTTCACGTGGGGTA,0.1
5,TTGCGCACGTGTGAGA,-0.13
6,GGATTCACGTGATGAA,0.5
7,TATGTCACGTGCGGCG,-0.03
8,GGATGCACGTGGGATC,0.06
9,AGTGGCACGTGCGTCG,-0.2
10,GTGTGCACGTGTTCGG,-0.08
11,AATGTCACGTGTCGAT,0.05
12,AACTACACGTGGTGTT,0
13,TGTTGCACGTGTCGTG,-0.01
14,TTACACACGTGTGGGG,-0.01
15,GGAGTCACGTGGTGAA,0.23
16,TCTTTCACGTGGAAGT,0.37
17,GGGCGCACGTGTTTAT,0.03
18,ATTTGCACGTGTGTCG,0.02
19,TTTGGCACGTGTTTAT,-0.12
20,AAAGTCACGTGGTAGA,0.09
21,ATGAGCACGTGTGAGG,0
22,TTTTCCACGTGTGGAT,0.28
23,TAAGTCACGTGACGTG,0.13

row,Sequence,relative binding free energy [kcal/mol]
1,GATTCCACGTGTGTTT,0.28
2,GATGTCACGTGGATGC,0.25
3,TTTTTCACGTGTGCCT,0.38
4,TTGTTCACGTGTTATG,0.32
5,TGGGGCACGTGGTTAT,-0.12
6,GGTTGCACGTGCGGCT,-0.05
7,GGTTGCACGTGGATTT,0.16
8,GATATCACGTGCTGGT,0.28
9,TTGCTCACGTGGTGAT,0.23
10,GGTAGCACGTGGTGGG,0.03
11,GATTTCACGTGTATGC,0.49
12,TAGGCCACGTGGTTTG,-0.14
13,CAGGGCACGTGGATAT,-0.07
14,GAATACACGTGGTATT,0.16
15,AGGTACACGTGTTGGA,0.19
16,AGAGGCACGTGTGAGC,-0.06
17,AATAACACGTGTGGGG,-0.01
18,TAGTACACGTGGAAGT,0.05
19,GGGGACACGTGCGGTG,-0.05
20,CGGAGCACGTGATAGT,0.04
21,CTTTACACGTGGCTGT,0.05
22,TATGTCACGTGAAGGA,0.34
23,GTGCTCACGTGGATTG,0.24

row,Sequence,relative binding free energy [kcal/mol]
1,ACGGTCACGTGAGGGT,0.4
2,GATTGCACGTGATGAG,0.07
3,GTTTCCACGTGAGTAG,0.21
4,TAAGACACGTGTGTTA,0.01
5,TTGGCCACGTGAGGGT,0.13
6,ATTGCCACGTGGATTG,0.07
7,AGTTTCACGTGGTGGT,0.21
8,TGTACCACGTGTGATG,-0.01
9,TGGTACACGTGGGCAG,-0.17
10,GTTATCACGTGAAGTG,0.04
11,TTAGGCACGTGGTTGC,-0.22
12,TTGGGCACGTGTGTTA,-0.01
13,GGTTACACGTGAGAGC,0.48
14,TTGGTCACGTGGTCGC,0.04
15,GGCGGCACGTGACTGG,0.01
16,TTGTGCACGTGGGAGG,-0.11
17,TCGGACACGTGGGTTA,-0.12
18,TCTGCCACGTGGGTTG,-0.25
19,AAACTCACGTGGGTGG,0.21
20,AGGTTCACGTGTCCGG,0.31
21,AGTATCACGTGTTTAG,0.07
22,TGATACACGTGGCGGG,-0.12
23,TAGTACACGTGTGGTC,0.12

row,Sequence,relative binding free energy [kcal/mol]
1,GTTTACACGTGTTGGC,0.14
2,TCAGTCACGTGGGCAT,-0.03
3,GAAGTCACGTGAGGAG,0.35
4,GTGAGCACGTGCGTCG,-0.1
5,GGCGGCACGTGATGCG,-0.07
6,CTGGGCACGTGCGGGC,-0.25
7,TAATGCACGTGAGGTG,0.29
8,TAAGTCACGTGTGAGT,-0.02
9,TGCTGCACGTGGTGAT,-0.05
10,ACGGGCACGTGGCAGG,-0.05
11,GGGTGCACGTGAGTAT,0.29
12,TCGGCCACGTGGTGTG,-0.25
13,AAATTCACGTGGGTCT,0.19
14,TTTAGCACGTGAGGTC,0.15
15,ATATGCACGTGGAATT,0.11
16,ATTGGCACGTGGTCGT,-0.19
17,GGGCACACGTGGGGCA,-0.15
18,GTATCCACGTGTGGGG,-0.01
19,TTTCGCACGTGGGCGA,-0.17
20,AGAGACACGTGGGTGC,0.02
21,TAGAACACGTGTGATG,0.02
22,AGGTTCACGTGAAGCT,0.25
23,GGATGCACGTGAGGAA,0.28

row,Sequence,relative binding free energy [kcal/mol]
1,GGTGTCACGTGAAACG,0.31
2,GTGGTCACGTGTTCAA,0.17
3,GTTTCCACGTGTAGGG,0.05
4,GACTGCACGTGTGGTT,0.06
5,GTGTGCACGTGAGGTT,0.24
6,GGTAACACGTGATTGA,0.14
7,TGTGTCACGTGTGATA,0.16
8,GGGTTCACGTGAAGCA,0.35
9,CGTGTCACGTGTTAGA,0.12
10,GGGATCACGTGGAGGT,0.19
11,TTAGTCACGTGCATTA,0.08
12,TAGGACACGTGGGGAT,0.02
13,GTATACACGTGTGCTG,0.07
14,TTTTGCACGTGGACGA,0.14
15,GCGTGCACGTGGAGGA,-0.04
16,TAGTGCACGTGTAGTT,0.06
17,GACGTCACGTGTGTGC,0.26
18,GTTTACACGTGCCTTG,0.15
19,TGGGGCACGTGGAATA,0.01
20,CGGAGCACGTGCGTTG,-0.17
21,CATGTCACGTGCAGTG,0.1
22,TGCGTCACGTGGGTGT,-0.05
23,ATAGTCACGTGAGGTC,0.24
